According to PubChem BioAssay (NCATS):
The inconclusive results got no clear call from the source; some entries with a clear call stand among them for comparison. Where the call is inconclusive, the potency comes from a doubtful curve fit. Calls of active or inactive are those of the source. Calls come from the whole dose curve; as a rule, active = well fitted cell-killing curve with a large enough effect; inconclusive = small, poorly fitted or top-dose-only effect; inactive = flat fitted curve, though single readings scatter.

Experiment: qHTS of pediatric cancer cell lines to identify multiple opportunities for drug repurposing: Primary screen for TC32 cells (AID 1347089); note: nearly all actives have a fitted effect of over 60% in size
Settings: TC32 Ewing sarcoma viability, CellTiter-Glo luminescence, 48 h; series mostly up to 45.8 µM; activity change, negative = cytotoxic: at the top concentration
In short: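 A viability screen of TC32 cells was run over 48 h, with primary MIPE doses spanning 0.78 nM–46 µM and NPC doses 0.59 nM–46 µM. ATP luminescence (CellTiter-Glo) served as the read-out.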
Potency is the fitted concentration of half-maximal effect; tags give direction and shape of the fitted curve.

Structure (SMILES) | Potency
C[C@@H]1[C@@H](CC(C[C@H]2O[C@@H]3O[C@]4(C)CC[C@@H]5[C@H](C)CC[C@@H]([C@H]2C)[C@@]35OO4)C[S+](=O)([O-])c2ccc(COC(=O)N(C)C)cc2)O[C@@H]2O[C@]3(C)CC[C@H]4[C@H](C)CC[C@@H]1[C@@]24OO3 (some centres undefined) | inconclusive: 4.66 µM [cytotoxic, partial curve]
Nc1ccc(N=Nc2ccccc2)cc1 | inconclusive: 67.9 µM [cytotoxic, partial curve, poor fit]
N=c1c2c(-c3ccccc3)c(-c3ccccc3)n(Cc3ccccc3)c2ncn1C1CCC(O)CC1 (centres undefined) | inconclusive: 4.66 µM [cytotoxic, full curve]

Experiment: qHTS of pediatric cancer cell lines to identify multiple opportunities for drug repurposing: Primary screen for DAOY cells (AID 1347090); note: nearly all actives have a fitted effect of over 55% in size;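 for activity change, negative = cytotoxic: plate controls were DMSO for no effect and bortezomib for full effect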
Settings: DAOY medulloblastoma viability, CellTiter-Glo luminescence, 48 h; activity change, negative = cytotoxic: at 46 µM (top of the series)
In short: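 Viability measured as metabolically active cells via CellTiter-Glo luminescence following 48 hours of compound exposure, 11-point dilutions in confirmatory testing. 500-1,000 cells/well plated 5 hours before dosing; controls were DMSO and 2.3 µM bortezomib.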

Structure (SMILES) | Potency | activity change, negative = cytotoxic
COC1=C[C@@H]2[C@@H]3Cc4ccc(OC)c(O)c4[C@]2(CCN3C)CC1=O | inconclusive: 9.35 µM [cytotoxic, full curve] | 
C[C@](O)(CS(=O)(=O)c1ccc(F)cc1)C(=O)Nc1ccc(C#N)c(C(F)(F)F)c1 | active: 0.743 µM | 
Cc1sc2c(c1C)C(c1ccc(Cl)cc1)=N[C@@H](CC(=O)OC(C)(C)C)c1nnc(C)n1-2 | inconclusive: 0.935 µM [cytotoxic, partial curve] | 
COc1ccc(C(c2ccc(OC)cc2)C(Cl)(Cl)Cl)cc1 | inconclusive: 24.1 µM [cytotoxic, partial curve] | 
C[C@H]1CCCC=CC2C[C@H](O)C[C@@H]2[C@H](O)C=CC(=O)O1 (some centres undefined) | inconclusive: 0.0187 µM [cytotoxic, full curve, poor fit] | 
O=c1oc2ccccc2c(O)c1C(CC(O)c1ccc(-c2ccc(Br)cc2)cc1)c1ccccc1 (centres undefined) |  | inactive: -6.31%
